# Laboratory results as given in the supplement of paper PMC10441789.
# This is one part of the list. Antibody binding of pooled human sera (four to six donors per pool; dilution not stated) to peptides of the Trypanosoma cruzi antigen TSSA on microarrays. Quantile-normalised fluorescence in arbitrary units, mean of duplicate arrays; higher = more binding. No active / inactive call. The uninfected pools are read here as the healthy donors of the same country. The strongest signals lie near the top of the scale (about 60,000).
# System: pooled sera of chronic Chagas disease patients, Argentina
# Experiment: antibody binding signal (normalised fluorescence) (arbitrary fluorescence units); higher = stronger serum antibody binding to peptide
# Procedure: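 Microarray of 15-residue peptides over residues 30-55 of Trypanosoma cruzi TSSAII, each with 1 to 10 substitutions at naturally variable positions, probed with one serum pool per country.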
row,Sequence,antibody binding signal
1,TEKKPAAGGAPSPSG,1290
2,GKENKAAAGGAPSPP,1080
3,KTAAGETPSPSGASS,159
4,KDKKAATGGTPSPPG,341
5,SSTPPSGKENKTATG,17700
6,SGTDKKAATGGTPSP,1060
7,TEKKAATGGAPSQSG,1890
8,GTENKAAAGGTPSPP,38200
9,TSSTPPSGTDNKTAT,30400
10,TDKKPAAGGTPSQPG,380
11,SGKENKTAAGEAPSQ,3770
12,GTDKKTATGGAPSPS,810
13,DKKTAAGGAPSQPGA,392
14,GKDNKPAAGGTPSPP,331
15,PPSGKDNKAATGGAP,612
16,KAAAGGTPSQSGASS,183
17,GKDKKAAAGEAPSPP,370
18,KAAAGETPSPSGASS,175
19,TISTPPSGKDKKTAT,17900
20,STPPSGTDKKAAAGG,38200

row,Sequence,antibody binding signal
1,GTEKKAATGGTPSPS,981
2,GTEKKPATGGTPSPS,1650
3,TSSTPPSGKENKPAT,20500
4,GKDKKTAAGGTPSPS,300
5,NKTATGETPSQSGAS,876
6,GKEKKTATGETPSQP,5700
7,GKDNKAATGGTPSPS,1060
8,TPPSGTEKKTAAGET,20100
9,NKAAAGGAPSQPGAS,341
10,DKKPATGETPSQSGA,32400
11,GKENKPAAGEAPSPP,4390
12,TPPSGTDKKAAAGEA,14300
13,DNKTAAGGTPSPPGA,1250
14,KDKKPAAGGAPSPSG,204
15,PPSGTDNKAAAGGAP,48100
16,KKPAAGGAPSQSGAS,182
17,STPPSGKEKKTAAGE,15500
18,GTEKKPAAGGTPSQS,1120
19,GTENKAAAGGTPSQS,40300
20,TPPSGTDKKPAAGEA,28400
